Source: the RNAGym collection of RNA variant scans (doi:10.7554/elife.90254)
The source gives no read counts; variants with many changes may rest on few reads.

B1: LINE1-mini (parent)
chain: GGCAGAGCUCAACACAGCGUGGCAAAGUGGCUGUGGCUAGACUGCC

Variants of: B1
Assay: self-cleavage, relative activity (ratio to wild type); higher = more cleavage; in vitro, sequencing; the parent is a self-cleaving ribozyme

Variant | self-cleavage
C10U A26U G29C | 0.03
C10U G19C U43A | 0.03
C10U A12U C13U G21U | 0.07
C10U A14G C45A | 0.06
C10U G21A C23U G35U | 0.04
C10U C23U C37G | 0.03
C10U A14C C18U G21A G44U | 0.05
C10U C23A A25U | 0.07
C10G U34G C45A | 0.06
C10G G30C G33A | 0.02
C10G G36A U38G | 0
C10G G27U C37U | 0.01
C10G U38C C42G | 0
C10U C13U G19U C45G | 0.05
C10U C13U A16U U34G A39U | 0.03
C10U G33A C37U | 0.03
C10U A26U C37U C45U | 0.03
C10U G29A A39G | 0.11
C10U C13U U38C U43C | 0.02
C10U G21A G22C G44C | 0.09
C10U G17U C23G | 0.02
C10U A16G G30A C31A | 0.05
C10U C18A C23U | 0.38
C10U G27C C37A C45A | 0.01

Variant | self-cleavage
C10U G40U C42A C46G | 0.03
C10G U20C C31A G40C | 0
C10U C13U G33U | 0.06
C10U A41G G44A | 0
C10U A12U C13G C23U A25C | 0.05
C10U C15U C18U U28A G30U C31U A39U | 0.04
C10U C15U U20G | 0.17
C10G G27U G30U G40A C42A | 0
C10U A25U C45U | 0.17
C10G U20A G30C A39G | 0.01
C10U A12U U20C G21U A39C | 0.03
C10U G22U A26U C31A G36U | 0.05
C10U C13G G30U | 0.05
C10U A11C A12U | 0.04
C10U A26G G27U U43A C45U | 0.08
C10U A14G U20G | 0.24
C10U A11C A14G C18G G35U | 0
C10U A14G G21U A41C | 0.04
C10U C18U G36C G40C | 0.01
C10U G19C G44C | 0.15
C10U C15U G19A G22A C42G | 0.02
C10U C23A C31A | 0.04
C10G U34A C42G | 0.01
C10U C15U A16C U38A A39G A41U | 0.01

Variant | self-cleavage
C10U A16G C31U | 0.07
C10U C23A C31U G33A | 0
C10U G19A G22U U34G | 0.19
C10G G29U A41G C45U | 0.04
C10G G40U C42G | 0.04
C10U A11G G22A C37G | 0.01
C10U G30A C31U C46G | 0.09
C10U A16G A25G A26C U28C G29A | 0.11
C10G G40U U43G | 0
C10U A11U U38G | 0.01
C10U A12G C13U A14G U20A U32A C37U | 0
C10U C13U G35U | 0.13
C10U G21U G30U | 1.12
C10G U20A C31A A41U | 0
C10U A14G C31G U32A | 0.01
C10U A16C G21U G36U | 0.02
C10U G33U A41U | 0.02
C10U A16G G22A G30A U38C U43G | 0
C10U G27U U43G G44A C46U | 0.01
C10U G19C C23A | 0.16
C10G G30A C45A | 0.01
C10U A24G G30U G35C C37A A41G | 0.01
C10U C13A A26G G36A A41U | 0.02
C10G G27U U34A U38C | 0.01

Variant | self-cleavage
C10U G22U C45A | 0.05
C10U A12U U20A A41U G44C | 0.02
C10U C15A A41C | 0.01
C10U C13G A16U G30U | 0.03
C10U C15A U20G G27A A41G | 0.02
C10U G19A G22U C23A G44U | 0.18
C10U G30A U43A | 0.02
C10U G21C U34A C45G C46U | 0.04
C10U G35C U43C C46U | 0.03
C10U A39G G40C C46G | 0.05
C10G G35U C37U C45G | 0.01
C10U G17U G30A G36C C46U | 0
C10U G22C C45A | 0.47
C10U G19U G36A C46A | 0
C10G G36C A39C | 0
C10U A24U U32G A41U | 0.02
C10U C18U U28A G33C G36U | 0
C10U A25C G29C U34C A39G | 0.02
C10U C23A C45A | 0.14
C10U C13A G27A A39U | 0.04
C10U G36C G44U | 0.08
C10U A26C G29U G36C C46A | 0.01
C10U G33A G40C | 0.04
C10U A11G G22A | 0.02

Variant | self-cleavage
C10U G17A G40A C42A | 0.03
C10U C13U A14G | 0.04
C10G G29U G33A | 0.01
C10U C31G G36A C46A | 0.05
C10U A12U A16C | 0.02
C10U C23A A39U | 0.17
C10U G36U U43C | 0.12
C10U G17U C18U C37U | 0.03
C10G G40A C46U | 0.01
C10U G21A C23G U34A G44C | 0.05
C10G U20C U28G G30A U34C G36A | 0.02
C10U G35U G40U | 0.02
C10G U20G C45U | 0.06
C10U C15A U34G C37G | 0.04
C10U C15A G27U G35U | 0.03
C10U A14G G40A | 0.03
C10G U20C G21C | 0.02
C10U A12G A25U | 0.04
C10U G27C U32C G40A | 0.04
C10U G19A C23A C31A C45G | 0.4
C10U G17U C46A | 0.03
C10U G29C C31A | 0.24
C10U A11G A24C A39U | 0.09
C10U C13G G21C C31A U32A A39G A41U C42A | 0.02

Variant | self-cleavage
C10U A12U C23U G27A C42G | 0.11
C10U A12G A24U G30A U34C | 0.01
C10U A12C G17U | 0
C10U A11G C13A G22U A26G G29U C42A C45G | 0
C10U G19U A39U | 0.21
C10U U20A C31A | 0.01
C10U G17C A25U | 0.05
C10U C13G U20G | 0.05
C10U A11C A16G C18U U20G A39C U43C | 0.01
C10U A16C U32A | 0.03
C10U C15A G19A | 0.06
C10U C13G C37U | 0.09
C10U A26G G33U | 0.02
C10U G27C U28C | 0.19
C10U G17A C23U A26U | 0.16
C10U A12C G19A U38A | 0.01
C10U G27A C46A | 1.14
C10U C23A A24G U32C C37A | 0.03
C10G G29C C31A G36A | 0.02
C10U C23G C31U | 0.98
C10U A14U C15U C37U | 0.07
C10U G22U G29A U32A G33A G35A | 0.02
C10U A16G G17C A25U U38G | 0.02
C10G G30A G35A | 0.02

Variant | self-cleavage
C10G U20C G22U A26G G27U | 0.04
C10U G19U G21A A41U | 0.05
C10U C18U G44U | 0.15
C10U G19U G27U G40U | 0.02
C10U A11G C18G A26U | 0.02
C10U A11U U20G C31U G36C | 0.01
C10U C13G A14G G30A C37G | 0.03
C10U A14G C23U G27U | 0.06
C10U C18A G30U G33U G44U | 0.04
C10U A26C G36A | 0.06
C10U A24U U28G G44C | 0.41
C10U G19U A26G G33U G36C | 0.01
C10U A11C G33A G35U A41G | 0.02
C10U A14G A24C G29A C37G | 0.03
C10U A11G C15G C18G | 0.02
C10G U28A G40U | 0
C10U A24U C45A | 0.06
C10U G27A C31G | 0.12
C10U C18A U28G G30U | 0.16
C10G G27U C42U | 0.01
C10U A11U A16U G29U | 0.02
C10U G21U C23G A26G U28G G29A U38A | 0.01
C10U C23G G36U | 0.06
